Measured values as given in the supplement of paper PMC5655136.
These are enrichments in a pooled selection; single values are uncertain.

Test system: NB7
Test: fold depletion of shRNA, plasmid library share / infected cells without Dox share (9 days) (ratio); higher = more depleted after infection (more toxic, leaky expression from a Tet-inducible vector; NB7 is a neuroblastoma line without caspase-8)
Description: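 Pooled lethality screen in NB7 neuroblastoma cells infected with Dox-inducible pTIP shRNA libraries. The libraries tile every 21-mer of the Venus, CD95L or CD95 ORF / 3'UTR; each hairpin is the 21-nt sense sequence + CTCGAG loop + antisense. Cells were cultured 9 days with or without 100 ng/ml Dox. shRNA representation was measured by deep sequencing of the genomic inserts, normalised to the total reads per subpool and averaged over technical replicates. Fold depletion is the plasmid library share / infected cells without Dox share (mean of 2 biological replicates), and the -Dox/+Dox share ratio is the mean of 4 replicate pairings; higher values mean more depletion (toxicity).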

[1] = shRNA pool: CD95 ORF + CD95 3'UTR + Venus libraries
[2] = shRNA pool: CD95L ORF + CD95L 3'UTR + Venus libraries
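Further: shRNA barcodes quantified by deep sequencing of PCR amplicons from cellular DNA, counts expressed as percent of each subpool, ratio averaged over two biological duplicates.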

## ACAGAAAACATGCAGAAAGCA
[1]
  fold depletion of shRNA: 1.71

## ACAGAAAGGAAAACCAAGGTT
[1]
  fold depletion of shRNA: 3.11

## ACAGAAGGAGCTGGCAGAACT
[2]
  fold depletion of shRNA: 2.16

## ACAGACAAAGCCCATTTTTCT
[1]
  fold depletion of shRNA: 2.18

## ACAGCAGAACAGAAAGTTCAA
[1]
  fold depletion of shRNA: 1

## ACAGCATCATCTTTGGAGAAG
[2]
  fold depletion of shRNA: 1.14

## ACAGCATGTGTATTTCCAGTG
[2]
  fold depletion of shRNA: 1.71

## ACAGCCACAACGTCTATATCA
[2]
  fold depletion of shRNA: 1.48
[1]
  fold depletion of shRNA: 2.35

## ACAGGCACCGAGAATGTTGTA
[2]
  fold depletion of shRNA: 1.56

## ACAGGCCTGTGTCTCCTTGTG
[2]
  fold depletion of shRNA: 1.21

## ACAGTCAATGGGGATGAACCA
[1]
  fold depletion of shRNA: 3.54

## ACAGTGGCAATAAATTTATCT
[1]
  fold depletion of shRNA: 0.791

## ACAGTTCTTCCCTGTCCAACC
[2]
  fold depletion of shRNA: 4.27

## ACAGTTGAGACTCAGAACTTG
[1]
  fold depletion of shRNA: 2.79

## ACAGTTTATTGGTGTCATATT
[1]
  fold depletion of shRNA: 1.17

## ACATAGAAAACATTAAATTAT
[1]
  fold depletion of shRNA: 0.966

## ACATAGAACTCTGGGCTGCCA
[2]
  fold depletion of shRNA: 1.98

## ACATAGCAATGGTAAAATCAT
[1]
  fold depletion of shRNA: 0.801

## ACATATGATTCTGTAGTATGA
[1]
  fold depletion of shRNA: 1.11

## ACATATTAGGAAAATATGGGT
[2]
  fold depletion of shRNA: 0.669

## ACATATTTGTAGATTTTTAAT
[1]
  fold depletion of shRNA: 0.679

## ACATCCTGGGGCACAAGCTGG
[2]
  fold depletion of shRNA: 4.34
[1]
  fold depletion of shRNA: 1.8

## ACATCGAGGACGGCGGCGTGC
[2]
  fold depletion of shRNA: 0.304
[1]
  fold depletion of shRNA: 0.282

## ACATGAACCAAGTGGACCTTG
[2]
  fold depletion of shRNA: 2.85

## ACATGAAGCAGCACGACTTCT
[2]
  fold depletion of shRNA: 5.97
[1]
  fold depletion of shRNA: 1.98

## ACATGAGGAACTCTAAGTATC
[2]
  fold depletion of shRNA: 0.819

## ACATGCAGAAAGCACAGAAAG
[1]
  fold depletion of shRNA: 1.59

## ACATGCATTTGAGGTCAAGTA
[2]
  fold depletion of shRNA: 0.829

## ACATGGAAATATCACCAAAAA
[1]
  fold depletion of shRNA: 0.647

## ACATGGAATCATCAAGGAATG
[1]
  fold depletion of shRNA: 1.07

## ACATGGCTTAGAAGTGGAAAT
[1]
  fold depletion of shRNA: 1.01

## ACATGGTCCTGCTGGAGTTCG
[2]
  fold depletion of shRNA: 1.13
[1]
  fold depletion of shRNA: 1.16

## ACATGGTTGTGACCTGAGGAT
[2]
  fold depletion of shRNA: 10.5

## ACATGTAATAAAAAGTATATG
[2]
  fold depletion of shRNA: 0.455

## ACATGTCATGAACCCATGTTT
[1]
  fold depletion of shRNA: 2.2

## ACATTAAATTATAATGTTTGA
[1]
  fold depletion of shRNA: 0.671

## ACATTACTAGTGACTCAGAAA
[1]
  fold depletion of shRNA: 0.799

## ACATTGATTAAAGATCTCAAA
[1]
  fold depletion of shRNA: 1.05

## ACATTTTATCATTTATTAGCG
[1]
  fold depletion of shRNA: 1.21

## ACCAAAAAATACTTAATAGTC
[1]
  fold depletion of shRNA: 0.476

## ACCAAAAGGCAAGACTGCCCT
[1]
  fold depletion of shRNA: 0.898

## ACCAAACTTTTTTTGTAACTC
[1]
  fold depletion of shRNA: 1.05

## ACCAAATGTGAACATGGAATC
[1]
  fold depletion of shRNA: 1.31

## ACCAAGGTTCTCATGAATCTC
[1]
  fold depletion of shRNA: 1.23

## ACCAAGTGCAAAGAGGAAGGA
[1]
  fold depletion of shRNA: 0.826

## ACCAAGTGCAGATGTAAACCA
[1]
  fold depletion of shRNA: 1.5

## ACCAAGTGGACCTTGAGACCA
[2]
  fold depletion of shRNA: 0.956

## ACCACAGCACAGGCCTGTGTC
[2]
  fold depletion of shRNA: 2.38

## ACCACAGGGTTCAAAATGTCT
[2]
  fold depletion of shRNA: 3.89

## ACCACATGAAGCAGCACGACT
[2]
  fold depletion of shRNA: 1.4
[1]
  fold depletion of shRNA: 1.77

## ACCACCACCACCGCCACCGCC
[2]
  fold depletion of shRNA: 27.7

## ACCACCACCGCCACCGCCACC
[2]
  fold depletion of shRNA: 11.1

## ACCACCCTGGGCTACGGCCTG
[2]
  fold depletion of shRNA: 2.2
[1]
  fold depletion of shRNA: 1.62

## ACCACCGGCAAGCTGCCCGTG
[2]
  fold depletion of shRNA: 0.418
[1]
  fold depletion of shRNA: 0.514

## ACCACCTAAAGAACTTCCATT
[1]
  fold depletion of shRNA: 1.72

## ACCACTACCACCTCCGCCGCC
[2]
  fold depletion of shRNA: 6.07

## ACCACTACCAGCAGAACACCC
[2]
  fold depletion of shRNA: 2
[1]
  fold depletion of shRNA: 1.64

## ACCACTACCTGAGCTACCAGT
[2]
  fold depletion of shRNA: 3.23

## ACCACTATTGCTGGAGTCATG
[1]
  fold depletion of shRNA: 1.4

## ACCACTGCCTCCACTACCGCT
[2]
  fold depletion of shRNA: 1.45

## ACCAGACTGCGTGCCCTGCCA
[1]
  fold depletion of shRNA: 0.926

## ACCAGCAACACCAAGTGCAAA
[1]
  fold depletion of shRNA: 0.931

## ACCAGCAGAACACCCCCATCG
[2]
  fold depletion of shRNA: 1.5
[1]
  fold depletion of shRNA: 0.776

## ACCAGCCAGATGCACACAGCA
[2]
  fold depletion of shRNA: 0.973

## ACCAGGTGTTCTACACTCATC
[2]
  fold depletion of shRNA: 3.23

## ACCAGTCCGCCCTGAGCAAAG
[2]
  fold depletion of shRNA: 2.63
[1]
  fold depletion of shRNA: 1.11

## ACCAGTGCTGATCATTTATAT
[2]
  fold depletion of shRNA: 0.913

## ACCATATTTCTAAACTTTGTT
[1]
  fold depletion of shRNA: 0.672

## ACCATCTTCTTCAAGGACGAC
[2]
  fold depletion of shRNA: 10.3

## ACCCAAATAGGAGTGTATGCA
[1]
  fold depletion of shRNA: 1.4
